# Screen size: about 52,000 compounds; about 4,300 (8.3%) were called active. Cut-off read from the data, not from the text of the source: active = survival mostly below about 52% (no sharp cut-off); inactive = mostly above about 56%. Some of the results follow.
# Test system: DeltatarO mutant
# Test: growth inhibition of S. aureus wild type versus tarO mutant, primary screen, teichoic acid synthesis inhibitors, RN4220, OD600 (AID 463173)
# Settings: OD600, 18 h, hits give low values, screened at 18.75 µg/mL (by protocol)
row,SMILES,survival
1,Cc1c(-c2ccccc2)c(=O)oc2ccc(OC(=O)N3CCOCC3)cc12,inactive: 93%
2,O=C(Cn1cc(C(=O)C2CCCCC2)c2ccccc21)Nc1ccccc1Cl,inactive: 76%
3,CC(C)c1nc(NCCO)c2nnn(Cc3ccccc3)c2n1,inactive: 85%
4,COC(=O)C1=CNC=C(C(=O)OC)C1c1ccc(Cl)cc1,inactive: 88%
5,Clc1ccc(CN2CCN(c3ncnc4sc5c(c34)CCCC5)CC2)cc1Cl,inactive: 107%
6,COc1ccc(CNC(=O)Cc2c(C(=O)O)c(C)cn2C)cc1,inactive: 94%
7,COc1ccc(-c2nc3scc(CCNS(=O)(=O)c4ccc5c(c4)OCCO5)n3n2)cc1OC,inactive: 86%
8,Cc1cc(=O)c2cc(Br)ccc2[nH]1,inactive: 71%
9,Cc1ccc(-c2cn3c(n2)sc2cc(C(=O)NCCCN4CCCCCC4)ccc23)cc1,active: -4%
10,CC(CCc1ccccc1)NC(=O)Cn1c(=O)nc(-c2ccccc2)c2cc(Cl)ccc21 (configuration not stated),inactive: 80%
11,CCc1ccc2oc(C(=O)N(Cc3ccc(N(C)C)cc3)Cc3ccco3)c(C)c2c1,inactive: 71%
12,CCCN(CCC)C(=O)c1cc2c(=O)n3cccc(C)c3nc2s1,inactive: 56%
13,CC1=C(c2ccc(C)c(C)c2)S(=O)(=O)N=C1N1CCC(C(=O)NC(C)c2ccccc2)CC1 (configuration not stated),inactive: 84%
14,O=C(O)c1cc2cc3ccccc3nc2s1,inactive: 98%
15,O=C1c2ccccc2-c2onc3c(N4CCN(C5CCCCC5)CC4)cc(NCCO)c1c23,inactive: 59%
16,COCCNc1c(-c2ccc(OC)c(OC)c2)nc2ccc(Cl)cn12,inactive: 79%
17,COCC(=O)N1CCC(n2nnc3cc(F)ccc32)CC1,inactive: 53%
18,COc1ccc2c(C)c(CC(=O)NCCc3ccc(Cl)cc3)c(=O)oc2c1C,inactive: 111%
19,CCOc1ccc(NC(=O)CSC2=Nc3ccccc3C3=NC(CC(=O)NCc4cccs4)C(=O)N23)cc1 (configuration not stated),inactive: 76%
20,COc1cc(-c2cc(OC)c3c(C)oc(C)c3c(=O)c2)ccc1OC(=O)c1ccc(C)cc1,inactive: 88%
21,Cc1nc(N(C)C2CCCCC2)c2nnn(Cc3ccc(F)cc3)c2n1,inactive: 96%
22,O=C(CSc1n[nH]c(-c2ccccc2Cl)n1)NCCCc1ccccc1,inactive: 76%
23,CCOC(=O)c1cccc(NC(=O)c2ncoc2-c2ccco2)c1,inactive: 102%

row,SMILES,survival
1,COc1cc(NC(=O)C(F)(F)F)c(OC)cc1Br,inactive: 84%
2,O=C(O)c1cccc(N(CCO)CCO)c1,inactive: 95%
3,COC(=O)c1ccccc1NC(=O)Cn1cnc2sc(C)c(S(=O)(=O)N3CCC(C)CC3)c2c1=O,inactive: 59%
4,Cc1nc2ccccn2c(=O)c1NC(=O)c1cccc(F)c1,inactive: 71%
5,CCOc1ccc(C2C(=O)N(C3CCCCCC3)CC(=O)N2Cc2ccccc2)cc1OC (configuration not stated),inactive: 72%
6,COc1ccc(NC(=O)/C=C\C(=O)N(c2ccc(C(C)C)cc2)C(C(=O)NCc2ccco2)c2ccc(C)cc2)cc1 (configuration not stated),inactive: 74%
7,Cc1cccc(C(=O)N2CCc3cc(CNC(=O)c4cc5ccccc5[nH]4)ccc32)c1,inactive: 81%
8,CCn1nc(C)c(CCN(C)C(=O)Nc2cccc(Cl)c2C)c1C,inactive: 88%
9,O=S(=O)(c1ccccc1)c1nc(-c2ccccc2Cl)oc1N1CCCCCC1,active: 27%
10,Cc1cc(C)c(S(=O)(=O)NCCS(=O)(=O)N2CCN(c3ccccc3)CC2)c(C)c1,inactive: 94%
11,Cc1ccccc1N(C)S(=O)(=O)c1nnc(NC(=O)c2ccco2)s1,inactive: 94%
12,CCOC(=O)c1cc(-c2ccc(OC)cc2)n(CCC(=O)NCCc2ccccc2)c1C,inactive: 98%
13,COc1cccc(C(=O)NCCc2csc3nc(-c4ccccc4F)nn23)c1OC,inactive: 83%
14,COc1ccc(CCNC(=O)c2ccc3c(c2)sc2nc(-c4ccccc4)cn23)cc1OC,active: 47%
15,Cc1ccc(NC(=O)C2(C)Cc3ccccc3C(=O)O2)c(C)c1 (configuration not stated),inactive: 105%
16,COc1cccc(C2NC(C(=O)O)Cc3c2[nH]c2ccccc32)c1 (configuration not stated),inactive: 95%
17,N#C/C(=C\c1ccc(-c2ccccc2)o1)C(=O)Nc1ccccc1,inactive: 90%
18,Cc1cc(OCC(=O)NCCc2nc3ccccc3[nH]2)cc(C)c1Cl,active: 44%
19,Cc1ccc(CNC(=O)Cn2c(SCC(=O)Nc3ccc(F)cc3)nc3ccccc32)cc1,inactive: 126%
20,O=C(CSc1nc(=O)n(Cc2ccco2)c2c1CCC2)NCc1ccccc1,inactive: 89%
21,Clc1ccccc1OCCSc1nnc(-c2cccs2)o1,inactive: 43%
22,CCc1ccc2oc(-c3ccc(C)c(NC(=O)/C=C/c4ccco4)c3)nc2c1,inactive: 83%
23,Cc1ccc2nc(/C(C#N)=C/c3ccccc3F)[nH]c2c1,active: 31%

row,SMILES,survival
1,Cc1cccc(OCCSc2nnc(-c3cccs3)o2)c1,inactive: 58%
2,Cc1sc2ncn(CC(=O)N3CCN(c4ccccc4F)CC3)c(=O)c2c1S(=O)(=O)N1CCC(C)CC1,inactive: 74%
3,N#Cc1c(C(F)(F)F)cc(=O)n2c1[nH]c1ccccc12,active: 37%
4,COc1ccc(N2CCN(C(=O)CSc3nnc4c5ccccc5n(CC(=O)O)c4n3)CC2)cc1,inactive: 101%
5,CCOc1ccc(CCNC(=O)C2CCCN(S(=O)(=O)N(C)c3ccc(F)cc3)C2)cc1 (configuration not stated),inactive: 77%
6,CCS(=O)(=O)N1CCc2cc(C(=O)NCc3ccccc3OC)ccc21,active: 40%
7,COc1ccc(C(=O)NCC(C)C)c(OC)c1,inactive: 103%
8,Cc1ccccc1-c1nc2scc(CCNC(=O)c3ccco3)n2n1,inactive: 71%
9,CCn1cc(CNC(=O)c2cc(-c3ccc(C)cc3)nc3ccc(Br)cc23)c(C)n1,active: 40%
10,COc1cccc(NC(=O)C2CCC(CNS(=O)(=O)c3ccc4c(c3)CCCC(=O)N4)CC2)c1 (configuration not stated),inactive: 79%
11,C1CCC(N2CCN(C3CCCC3)CC2)C1,inactive: 76%
12,COc1cccc(NC(=O)C2CCN(c3ccc(Sc4ccc(C)cc4)nn3)CC2)c1,inactive: 49%
13,Cc1nnc(SCC(=O)N(C2CCCCC2)C2CCCCC2)[nH]c1=O,inactive: 114%
14,O=C(NCc1ccccc1)C(=O)Nc1c2c(nn1-c1ccc(F)cc1)CSC2,inactive: 84%
15,CCOc1ccc(CCNC(=O)c2cc3c(-c4ccccc4F)nn(C)c3s2)cc1,inactive: 64%
16,CCc1ccc(CNC(=O)CCCn2ccc3cc(S(=O)(=O)N4CCCC4)ccc32)cc1,inactive: 91%
17,CCC(Cn1nnc2ccccc2c1=O)NC(=O)Nc1ccccc1OC (configuration not stated),inactive: 79%
18,Cc1ccc(S(=O)(=O)c2nc(-c3ccc(F)cc3)oc2SCC(=O)NC2CCCCC2)cc1,inactive: 149%
19,COc1ccc(Cl)cc1-n1cc(-c2ccccc2)nc1SCC(=O)Nc1ccc(C)cc1,inactive: 86%
20,O=C(NC1CCCC1)c1ccc2c(=O)n(Cc3ccccc3)c(SCc3ccccc3F)nc2c1,active: 0%
21,COc1ccccc1CNC(=O)C1CCN(c2nc3ccc(C)cc3[nH]2)CC1,inactive: 100%
22,COc1ccccc1C1NC(=O)c2n[nH]c(-c3cccs3)c21 (configuration not stated),inactive: 65%
23,CC1CCN(C(=O)c2c(NC(=O)c3ccccc3Cl)sc3c2CCC(C(C)(C)C)C3)CC1 (configuration not stated),active: 10%

row,SMILES,survival
1,Cc1cc2nc(-c3ccc(OCc4ccccc4C)cc3)cc(C(F)(F)F)n2n1,active: 13%
2,COc1cc(C2CC(=O)N(Cc3cccc(F)c3)c3ccccc3S2)cc(OC)c1OC (configuration not stated),inactive: 103%
3,Cc1cc(C)cc(-n2ccnc2SCC(=O)Nc2cccc3ccccc23)c1,inactive: 77%
4,COc1ccc(NC(=O)C2CCC(CNS(=O)(=O)c3cccc4nsnc34)CC2)cc1OC (configuration not stated),inactive: 86%
5,CCCOC(=O)c1cccc(Nc2nc(CCC)cc(=O)[nH]2)c1,active: 10%
6,CCOC(=O)Cn1c(=N)n(Cc2ccc(C(C)(C)C)cc2)c2ccccc21,inactive: 103%
7,COCCNC(=O)CCCn1c(SCC(=O)Nc2ccc(F)cc2)nc2c(sc3ccccc32)c1=O,inactive: 76%
8,Cc1nc2cc(-c3ccccc3)nn2c(C)c1CCC(=O)N1CCN(c2ccc(F)cc2)CC1,inactive: 50%
9,COC(=O)c1cc2oc(C)cc2n1Cc1ccccc1Cl,active: -8%
10,CSc1nc(NCCOC(C)=O)c(C#N)c(-c2ccc(C(C)(C)C)cc2)n1,inactive: 67%
11,COc1ccc(C2C(=O)N(C3CCCCC3)CC(=O)N2CCc2ccc(C)cc2)cc1OC (configuration not stated),inactive: 89%
12,Cc1ccc2nc(CN3CCN(C(=O)Nc4ccc(F)cc4)CC3)oc2c1,inactive: 80%
13,CNC(=O)C1CCC(Cn2c(=O)c3sccc3n(Cc3cc(C)ccc3C)c2=O)CC1 (configuration not stated),active: 47%
14,COc1ccc(N2C(=O)NC(NS(=O)(=O)c3ccc(Cl)cc3)(C(F)(F)F)C2=O)cc1 (configuration not stated),inactive: 166%
15,CCc1ccc(S(=O)(=O)c2cn(CC(=O)Nc3ccc(F)c(Cl)c3)c3ccccc3c2=O)cc1,inactive: 71%
16,CCN(C(=O)Cn1c(C(=O)OC)cc2sc(Cl)cc21)c1cccc(C)c1,inactive: 100%
17,COC1(OC)c2nonc2C(OC)(OC)c2nonc21,inactive: 98%
18,NC(=O)CSc1nnc(-c2ccc(S(=O)(=O)N3CCCC3)cc2)o1,inactive: 78%
19,COc1ccc(Nc2nc(C(=O)NCc3ccco3)cs2)cc1,inactive: 96%
20,CCOc1ccc(-c2cn3c(n2)sc2cc(C(=O)NCCCN4CCCCCC4)ccc23)cc1,active: -2%
21,CCc1ccc2oc(C(=O)NCC(c3ccc(OC)cc3)N3CCCCC3)c(C)c2c1 (configuration not stated),inactive: 81%
22,CC1=C(C(=O)Nc2cccnc2)C(c2ccc(F)cc2)n2nc(-c3cccc(C)c3)nc2N1 (configuration not stated),inactive: 49%
23,Cc1cc(NC(=O)C2CCN(S(=O)(=O)c3c(C)noc3C)CC2)ccc1Br,inactive: 72%

# — PubChem BioAssay AID463173 (ICCB-Longwood Screening Facility, Harvard Medical School, 2010)
